The whole screen tested about 320,000 compounds, of which about 200 (0.062%) were called active. Inconclusive results, whose numbers are uncertain, are shown with a selection of clear calls. Calls come from the whole dose curve; as a rule, active = well fitted activation curve with a large enough effect; inconclusive = small, poorly fitted or top-dose-only effect; inactive = no such curve, though single readings can be large or run the other way. No potency is given beside an inconclusive call; the fits are too rough.
Assay: qHTS assay for re-activators of p53 using a Luc reporter; note: nearly all actives have a fitted effect of over 45% in size; for activity change, positive = activation: % of control where 0% means no effect
Conditions: H1299 p53-A138V BP100-luciferase reporter, luminescence, 24 h; series mostly up to 92.2 µM; activity change, positive = activation: at the top concentration
Outline: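 p53-null H1299 cells stably carrying temperature-sensitive p53-A138V and a BP100-luciferase reporter were pinned with compounds (4-point, 1:5 series) and held 24 hrs at 37 deg C. Luminescence was read 10 min after detection reagent.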
Potency is the fitted concentration of half-maximal effect; tags give direction and shape of the fitted curve.

| Compound | activity change, positive = activation | Potency |
| --- | --- | --- |
| CC(C)(C)C(=O)Nc1sc2c(c1C#N)CCC2 | inactive: -0.59% | – |
| c1ccc(Nc2nc(-c3cccs3)cs2)nc1 | – | inconclusive [activator, partial curve, poor fit] |
| COc1ccccc1N1C(C)=CC(=C(C#N)c2nc3ccccc3s2)C=C1C | – | inconclusive [activator, partial curve, poor fit] |
| O=C(CCCN1CCC(C(=O)c2ccc(F)cc2)CC1)c1ccc(F)cc1 | inactive: 2.18% | – |
| Cn1ncc([N+](=O)[O-])c1C(=O)Nc1ccc(-c2nc3ccccc3[nH]2)cc1 | – | inconclusive [activator, partial curve, poor fit] |
| O=C(NCCc1ccccc1)c1noc2c1CCCCC2 | – | inconclusive [activator, partial curve, poor fit] |
| Brc1ccccc1-c1nc(-c2ccccc2)no1 | – | inconclusive [activator, partial curve, poor fit] |
| Cc1c(NC(=O)c2ccc(=O)oc2)c(=O)n(-c2ccccc2)n1C | – | inconclusive [activator, single point] |
| CCN(CC)S(=O)(=O)c1cccc(C(=O)N/N=C/c2cccc(O)c2O)c1 | – | inconclusive [activator, partial curve, poor fit] |
| COc1ccc(C(=O)Nc2cc(Cl)ccc2OC(=O)c2ccc(OC)cc2)cc1 | – | inconclusive [activator, single point] |
| Cc1nc(NC(C)C)c2cnn(CCc3ccccc3)c2n1 | – | inconclusive [activator, partial curve, poor fit] |
| CN1C(=O)/C(=C2\SC(N3CCCCCC3)=NC2=O)c2ccccc21 | inactive: 13.8% | – |
| CC(C)Cc1csc(NC(=O)c2ccc(Cl)cc2)c1C(=O)O | – | inconclusive [activator, full curve, poor fit] |
| O=C(O)C1CCN(S(=O)(=O)c2cccc3nsnc23)CC1 | – | inconclusive [activator, single point] |
| C=CCNC(=O)c1cc(-c2ccc(Br)cc2)on1 | – | inconclusive [activator, partial curve, poor fit] |
| O=C(Cc1ccc(NC2=NC3CS(=O)(=O)CC3S2)cc1)NCCc1ccccc1 (stereo not drawn) | inactive: 1.52% | – |
| O=C(Nc1ccc(Br)cc1F)c1ccc2c(c1)N(Cc1ccccc1)C(=O)CS2=O (stereo not drawn) | inactive: 3.2% | – |
| CCCCOc1ccc(CSCCNC(=S)Nc2ccccc2)cc1 | – | inconclusive [activator, single point] |
| O=C(Oc1ccccc1/C=C\C(=O)c1cc2ccccc2o1)c1ccccc1 | – | inconclusive [activator, partial curve, poor fit] |
| CCCCCN=Cc1c(C)[nH]n(-c2nc3ccccc3s2)c1=O | – | inconclusive [activator, partial curve, poor fit] |
| CC(C)c1nc2ccc(Br)cn2c1NC1CCCC1 | inactive: -9.31% | – |
| COC1CCN(C(=O)C2CCC(=O)N(CCc3cccc(F)c3)C2)CC1 (stereo not drawn) | – | inconclusive [activator, partial curve, poor fit] |

| Compound | activity change, positive = activation | Potency |
| --- | --- | --- |
| OCCCN1c2ccccc2Nc2nnc(-c3ccccc3)cc21 | – | inconclusive [activator, full curve, poor fit] |
| CCCCn1c(N)c(N(CC(C)C)C(=O)c2ccc(-n3c(C)ccc3C)cc2)c(=O)[nH]c1=O | – | inconclusive [activator, partial curve, poor fit] |
| O=C(Cc1c(F)cccc1Cl)Nc1ccon1 | inactive: 2.8% | – |
| O=C(c1noc2c1CCc1ccccc1-2)N1CCOCC1 | – | inconclusive [activator, full curve, poor fit] |
| COc1ccc(NC(=O)CSc2nnnn2C)cc1S(=O)(=O)N1CCCCC1 | – | inconclusive [activator, partial curve, poor fit] |
| O=C1NN(c2cccc(Br)c2)C(=O)/C1=C\c1ccc(O)cc1 | inactive: -0.856% | – |
| COc1ccc(/C=C/C(=O)Nc2cccc(C(C)=O)c2)cc1 | – | inconclusive [activator, partial curve, poor fit] |
| CC(=O)c1ccc(NC(=O)C(C)Sc2nnc(C3CCCCC3)o2)cc1 (stereo not drawn) | – | inconclusive [activator, full curve, poor fit] |
| O=C(NCCN1C(=O)C2C3C=CC(C3)C2C1=O)Nc1ccccc1O (stereo not drawn) | – | inconclusive [activator, partial curve, poor fit] |
| OC[C@@H](O)[C@H](O)C(/C=N/Nc1ccccc1)=N\Nc1ccccc1 | inactive: -5.7% | – |
| Cc1ccnc(N/C=C/C(=O)c2ccc(Br)cc2)c1 | – | inconclusive [activator, partial curve, poor fit] |
| O=C(CSc1n[nH]c(=O)n1C1CC1)c1c[nH]c2ccccc12 | – | inconclusive [activator, single point] |
| Cc1cc(=O)oc2cc(OCC(=O)N/N=C/c3ccccc3O)ccc12 | inactive: 2.79% | – |
| CSc1nc2ccc(NC(=O)c3cccs3)cc2s1 | – | inconclusive [activator, partial curve, poor fit] |
| O=C(COC(=O)c1cccnc1Cl)NCC1CCCO1 (stereo not drawn) | inactive: 0.214% | – |
| Cc1ccoc1C(=O)Nc1cccc(Oc2ccccc2)c1 | – | inconclusive [activator, partial curve, poor fit] |
| Cc1ccc(NC(=O)CN2C(=O)N/C(=C/c3ccccc3OCc3cccc(C(=O)O)c3)C2=O)cc1 | – | inconclusive [activator, full curve, poor fit] |
| CC(C)Cc1cc(C(=O)NCc2cccs2)no1 | – | inconclusive [activator, partial curve, poor fit] |
| c1ccc2sc(-c3ccncc3)nc2c1 | inactive: 14.4% | – |
| COc1ccc(NC(=O)C/C(C)=N/NC(=O)c2ccccn2)c(OC)c1 | – | inconclusive [activator, partial curve, poor fit] |
| Cc1ccc(-n2ccn(CC(=O)NCCc3ccccc3)c(=O)c2=O)cc1C | – | inconclusive [activator, partial curve, poor fit] |

— PubChem BioAssay AID504706 (National Center for Advancing Translational Sciences (NCATS), 2011)
